Reference: ChEMBL document CHEMBL4888484, “Replenishing the malaria drug discovery pipeline: Screening and hit evaluation of the MMV Hit Generation Library 1 (HGL1) against asexual blood stage Plasmodium falciparum ,using a nano luciferase reporter read-out” (2022)
Screen size: about 150,000 compounds; about 540 (0.36%) showed an effect of 50% or more. The list shows a part of the results.

tested on: Plasmodium falciparum; assay: Primary screen in NF54 nanoGlo assay, in single point, at 2uM, 72h; a lower Z score goes with more inhibition; type: functional, Erythrocyte; details: timepoint 72 hour

Structure (SMILES) | % Inhibition [%] | Z score
CC1(C)CC[C@H](NC(=O)NC2CC2)c2ccccc21 | -6 | 0.65
Clc1ccc(OCCn2cc(-c3cnn(Cc4ccccc4)c3)cn2)cc1 | -10 | 1.99
Cc1nc(N2CCC(Cn3nc(C4CC4)ccc3=O)CC2)c2cnn(C)c2n1 | -18 | 2.58
COc1ccc(C(=O)NC2CC3CCC(C2)S3(=O)=O)cn1 (stereo unspecified) | -16 | 1.71
Cc1nccn1-c1ccc(NC(=O)C2CCN(S(=O)(=O)c3ccc4c(c3)CCC4)CC2)cn1 | 18 | -3.63
CCC(=O)N1CCC(NCc2csc3ccccc23)C(CC)C1 (stereo unspecified) | -13 | 1.94
CCOc1ccc(CN2CCC[C@H](CS(C)(=O)=O)C2)cn1 | -7 | 1.41
O=C(Cn1c2c(c(=O)n3ncnc13)CCC2)Nc1ccccc1 | -3 | 0.42
CCC(c1ccc(F)cc1)c1nnc(C2COc3ccccc3C2)o1 (stereo unspecified) | -6 | 1.02
OC[C@H](Cc1c[nH]cn1)NCc1cc2ccc(Cl)cc2nc1OCCOc1ccccc1 | 8 | -1.41
Cc1ccc2nnc(CNS(=O)(=O)CCC3CCOCC3)n2c1 | -10 | 0.84
C[C@@H](C(=O)NCc1ccc2c(c1)OCO2)N(C)CCOc1ccc(Br)cc1 | 1 | -0.15
c1ccc(CCC[C@H]2CN(Cc3cccnc3)CCO2)cc1 | -3 | 0.56
Cc1nn(-c2ccc(F)cc2)c2[nH]nc(NC(=O)c3ccon3)c12 | -7 | 0.74
Cc1nc(OCC(=O)NCc2cccc(Cl)c2)c2c(-c3ccc(C)c(C)c3)noc2n1 | 3 | -0.45
CNC(=O)c1cccc(-n2cc(O)c(-c3nc(-c4ccccc4)cs3)c2N)c1 | -9 | 1.21
CNC(=O)c1cc(C(=O)CN2CC(C)OC(C)C2)cn1C (stereo unspecified) | -6 | 0.64
O=C(c1cc(C2CC2)[nH]c(=O)c1)N1CCC[C@@]2(C1)OCc1ccccc12 | -3 | 0.4
CC(c1cccc(O)c1)N(C)S(=O)(=O)N(C)C(C)C1CC1 (stereo unspecified) | -17 | 2.7
O=C1CO[C@H]2CN(Cc3c[nH]c4ccccc34)C[C@H]2N1Cc1cccnc1 | -10 | 1.6
CCC[C@H](C)c1cc(NS(=O)(=O)c2cnn(CC)c2)[nH]n1 | 38 | -0.96

Structure (SMILES) | % Inhibition [%] | Z score
Cc1c(Cl)cccc1C(=O)N[C@@H](CC1CC1)C(=O)O | -5 | 0.59
CN(C)C(=O)CCc1ccc(CC2CCN(Cc3ccccn3)CC2)cc1 | -12 | 1.54
CCC(C)(C)C(=O)Nc1nnc(C(C)C)s1 | -9 | 1.68
c1cc(CNC2CCN(c3ccc(-c4cscn4)cc3)CC2)cs1 | -6 | 1.07
CN(C(=O)Cn1cc(Br)cn1)[C@H]1CCO[C@@H]1c1cccnc1 | -10 | 0.83
CC(C)(C)C(=O)NC[C@@](O)(c1ccco1)C1CC1 | -10 | 1.66
Cc1c(-c2ccc(Cl)cc2)nnn1CCC(N)=O | -10 | 1.37
O=C(NCc1ccc(Cl)cc1)c1cncn1-c1cccc(-c2cccc(OC(F)(F)F)c2)c1 | -1 | 0.2
Cc1cc(C)c(S(=O)(=O)NC2CCOC(c3nccn3C)C2)s1 (stereo unspecified) | 3 | -0.54
O=C(N[C@@H](Cc1ccccc1)C(=O)Nc1cccnc1)OCc1ccccc1 | 5 | -0.58
Nc1nc2c(c(N3Cc4ccccc4C3)n1)CCNC2 | -1 | 0.13
CC(C)(C)c1nn(Cc2noc(C3CC3)n2)c(O)c1CCC#N | -7 | 1.16
OC[C@]1(c2ccccc2)CCN(Cc2nnc(-c3ccccc3)o2)C1 | 4 | -0.36
CC1CCN(C(=O)C(=O)N2CC(C)(C)[C@@H]2C2CC2)CC1 | -9 | 1.68
FC(F)(F)C1CCN(c2cnccn2)CC1 | 1 | -0.24
CC(C)[C@H](C)NC1CCN(S(=O)(=O)NCC(F)(F)F)CC1 | -4 | 0.83
Cc1ccccc1NC(=O)c1cnn2c1NC(C(=O)O)=C[C@H]2c1ccc(C(C)C)cc1 | -3 | 0.53
CCC(CC)(CO)CN(C)C(=O)c1nccnc1O | -7 | 1.33
O=C(Nc1ccc(Cl)c(Cl)c1)N1CCCCCC1=Nc1ccc(Br)cc1 | 32 | -3.66
COC(C)c1noc(CNC2CC(C)CCC2C(C)C)n1 (stereo unspecified) | -6 | 0.55
Cc1nn(-c2ccccc2)c(Oc2ccc(F)cc2)c1CN(CC1CC1)C[C@H](O)c1ccccc1 | 1 | -0.2

Structure (SMILES) | % Inhibition [%] | Z score
CCc1cnc(N2CCn3nc([C@H](O)c4nccn4C)cc3C2)nc1 | 14 | -1.76
Cc1ccc(C(=O)CCn2ccnc2)cc1 | 10 | -1.01
C=CCNC(=O)CN[C@@H](C)c1cccc(F)c1F | 3 | -0.43
COC[C@H](NC(=O)c1cccc(-c2ccco2)c1)c1ccccn1 | -4 | 0.83
CC[C@@](C)(C(=O)NC1CCCC1)N(C(=O)c1ccc2c(c1)OCO2)c1c(C)n(C)n(-c2ccccc2)c1=O | -7 | 1.15
C#CCCC1(CCC(=O)N2CCCC2C2CCCOC2)N=N1 (stereo unspecified) | -16 | 2.05
CC(NCCc1ccccc1)C(C)C(c1ccccc1)c1ccccc1 (stereo unspecified) | -7 | 1.2
COc1ccccc1-c1n[nH]cc1CN1CC(=O)NCC12CCCC2 | 32 | -4.37
CC(C)(CC(=O)O)CC(=O)N[C@H]1CO[C@H]2[C@@H]1OC[C@@H]2Nc1nccc(C(C)(C)C)n1 | 6 | -0.69
CCc1nnc(NC(=O)[C@H](C)n2nc(C3CCNCC3)n(CC)c2=O)s1 | -13 | 1.52
Cc1n[nH]c(C)c1CC(=O)N(Cc1ccccn1)Cc1ccco1 | -16 | 2.33
Cc1cnccc1CCN[C@@H](C)c1cn2ccccc2n1 | -6 | 0.77
Cc1cc(N2CCC[C@H](C(N)=O)C2)n2ncnc2n1 | -2 | 0.29
CNC(=O)Cc1csc(NC(=O)Cc2noc3ccccc23)n1 | -21 | 2.42
COc1cccc(NC(=O)Cn2c(=O)n(CCCC(=O)NCc3ccco3)c(=O)c3cc(Cl)ccc32)c1 | -5 | 0.74
COc1cccc2c1CCC[C@@H]2NC1CCC(O)(c2cccnc2)CC1 (stereo partly specified) | -7 | 0.87
COc1ccc2c(c1)CN(C(=O)c1[nH]c(=O)[nH]c1C)CC2 | -10 | 1.38
Cc1ccc(CNC(=O)CC2CC2)c2cccnc12 | -16 | 2.46
CC(C)(CO)N(Cc1ccncc1)C(=O)Nc1ccccc1Oc1ccccc1 | 5 | -0.85
CCC(=O)N1CCc2cc(CNC(=O)c3cccc(C)c3)ccc21 | -5 | 0.93
Cc1ccc(OCC(=O)N(Cc2ccco2)c2ccc(Cl)cc2)cc1 | -11 | 1.46

Structure (SMILES) | % Inhibition [%] | Z score
Cc1cccc(NC(=O)N2C3CCC2CC(Oc2ccccn2)C3)c1 (stereo unspecified) | 3 | -0.33
O=S1(=O)N=C(NCCc2cccc3ccccc23)c2ccccc21 | -2 | 0.37
Cc1ccc(CN(C)Cc2cnc(N3CCCC3)s2)o1 | -13 | 1.68
CNc1nc(N[C@H]2CC[C@@H]3CCC[C@@H]32)ncc1F | -1 | 0.18
C=C[C@H](COC)NC(=O)N1CCC(c2cncn2C)CC1 | 3 | -0.64
CCOC(=O)C1CCN(C(=O)[C@@H]2COC3(CCN(C(=O)C(C)C)CC3)N2C(=O)c2ccc(F)cc2)CC1 | -6 | 0.67
O=C(NCCN1CCCC1)C1CCN(c2ncnc3c2nc2n3CCCCC2)CC1 | -5 | 0.74
Cc1noc2ncnc(NCc3cc(Cl)cc4c3OCC4)c12 | -11 | 1.16
CC(C)[C@@H]1CN(C(=O)c2ccc3[nH]nnc3c2)CCCN1CC1CC1 | -25 | 2.28
CN(c1ccc(Cl)c(C(=O)N2CCC(C(N)=O)CC2)c1)S(C)(=O)=O | -5 | 0.91
Cc1ocnc1C(=O)N[C@@H](C)c1nnc(C(C)C)o1 | -5 | 0.94
Cc1nc(C)c(C(=O)Nc2cc(-c3cccc(F)c3F)n[nH]2)o1 | -11 | 1.16
C[C@@H](C(=O)Nc1ccc2c(c1)OCCO2)N1CCC(c2nc3ccccc3s2)CC1 | -12 | 1.52
CC(C)NC(=O)CCc1cc2n(n1)CCN(C(=O)[C@H](N)C1CCCCC1)C2 | -5 | 0.96
O=C(NS(=O)(=O)c1sccc1Cl)C1CCC2CCCCC2C1 (stereo unspecified) | 1 | -0.21
CC(C)N(CC(F)F)C(=O)CCc1ccc(F)cc1 | -5 | 0.61
CN1CC(C)(C)N(C(=O)c2ccc(CS(C)(=O)=O)o2)c2ccccc21 | -10 | 1.16
CCCOc1cccc2c(NC3CCN(CCOC)CC3)ccnc12 | 37 | -4.91
CC(C)CC(=O)N1CCc2ccc(OCc3ccc(C(=O)N(C)Cc4ccco4)o3)cc2[C@@H]1c1ccc(F)cc1 | -4 | 0.39
Cc1cc(S(=O)(=O)NCC2(Cn3cccn3)CC2)c(C)s1 | -7 | 0.73
